Test results published in PubChem BioAssay AID1346428 (National Center for Advancing Translational Sciences (NCATS), 2018).
Values joined by “and” are separate entries in the source; they are usually repeats but may differ in a detail not shown here. Identical values can stand only once. Out of some 48,000 compounds screened, about 1,200 (2.5%) were called active. Another 2% or so got no clear call; they are omitted.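 How the source made its calls: active means activation of at least 60% and not above a set upper limit (about 1 call in 100 departs from these limits); inconclusive means activation of 40% to 60%, or above that upper limit; inactive means activation under 40%.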 The list shows a part of the results.

Each molecule was assayed against Probable G-protein coupled receptor 32 (Homo sapiens) (UniProt O75388) (assay: qHTS for Agonists of Human Resolvin D1 Receptor DRV1). Settings: CHO-K1 GPR32 beta-arrestin PathHunter luminescence, 90 min; at 76.9 µM; hits give high values; zero percent set by DMSO-only wells.
UniProt O75388, sequence (O75388 whole entry, looked up, the tested form may be a part): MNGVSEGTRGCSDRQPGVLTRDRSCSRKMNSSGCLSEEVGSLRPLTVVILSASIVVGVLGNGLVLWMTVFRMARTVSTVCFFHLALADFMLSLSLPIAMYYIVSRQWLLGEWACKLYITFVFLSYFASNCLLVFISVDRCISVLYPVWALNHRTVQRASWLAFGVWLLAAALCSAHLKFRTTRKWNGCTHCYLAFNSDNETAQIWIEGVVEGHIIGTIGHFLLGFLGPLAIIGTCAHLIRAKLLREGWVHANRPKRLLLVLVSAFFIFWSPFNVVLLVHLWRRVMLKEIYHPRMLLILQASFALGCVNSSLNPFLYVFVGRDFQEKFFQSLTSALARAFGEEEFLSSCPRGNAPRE
How it was run: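 Agonism was scored as beta-arrestin recruitment to ProLink-fused GPR32 in stably transfected CHO-K1 cells, giving a chemiluminescent beta-Gal signal; compounds were incubated 90 min at 37 °C.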
Further: 0% is about no effect.

activation, inactive:
CN(C)c1nc(N(C)C)nc(N(C)C)n1 -9.63% and -0.888%
COc1ccccc1N1CCN(C(=O)CSc2nc3ccccc3nc2Cc2ccc(C)cc2)CC1 -30.7%
CCN(CCCNC(=O)c1nn(-c2ccc(OC)c(Cl)c2)c(=O)c2c1c1ccccc1n2C)c1ccccc1 -6.77%
COc1ccc(OC)c(CNC(=O)CSc2c3c(nc4cc(Cl)ccc24)CCCC3)c1 -22.6%
Cc1ccc(CN2CCN(C3CCN(S(=O)(=O)N(C)C)CC3)C(=O)C2=O)cc1 -26.5%
CC1CCN(C(=O)Cn2c(SCC(=O)Nc3ccc(F)cc3)nc3ccccc32)CC1 -9.02%
O=C(CSc1nc(-c2ccc(F)cc2)[nH]c1-c1ccc(F)cc1)Nc1ccc2c(c1)OCCO2 9.64%
COc1ccc(Cc2nc3ccc(C(=O)NCc4ccccc4Cl)cc3o2)cc1 -11.7%
Cc1ccc(C)c(N2CCN(C(=O)c3cnn(-c4ccccc4Cl)c3C3CCN(C(=O)OC(C)(C)C)CC3)CC2)c1 -3.68%
O=C1OC(C(=O)Nc2cc(C(F)(F)F)ccc2Cl)Cc2ccccc21 (configuration not stated) 35.5%
CCc1ccc(NC(=O)C(CC)n2c(=O)c(-c3ccccc3NC(C)=O)nc3ccccc32)cc1 (configuration not stated) -1.05%
O=C(COc1ccc(Cl)cc1)Nc1ccccc1OCc1cc(=O)n2ccccc2n1 7.17%
CCOc1ccc(CC(=O)NCC(c2cccs2)S(=O)(=O)c2ccc(F)c(C)c2)cc1 (configuration not stated) -5.19%
CCN(CC)c1ccc(NC(=O)C2CCN(S(=O)(=O)c3cnc[nH]3)CC2)c(C)c1 7.77%
CCOC(=O)c1c(C)c(-c2ccccc2)n(CC(=O)NC(CC)Cc2ccccc2)c1C (configuration not stated) -2.09%
Cc1ccc(NC(=O)C2CC(=O)N(c3ccc(OC(C)C)cc3)C2)cc1 (configuration not stated) -11.1%
COc1cccc(C(=O)Nc2ccc3oc(-c4cccc5c(Br)cccc45)nc3c2)c1 16.2%
Cc1ccc(Nc2nnc(-c3ccc(C)c(S(N)(=O)=O)c3)c3ccccc23)cc1 -14.3%
COc1ccccc1N1CCN(C(=O)c2cnn(-c3ccc(F)cc3F)c2C2CCNCC2)CC1 20%
CCc1ccccc1N(C)C(=O)c1ccc2c(=O)n3c(nc2c1)CCCCC3 -12.9%
COc1ccc(S(=O)(=O)NCC(c2ccc(N(C)C)cc2)N2CCc3ccccc32)cc1OC (configuration not stated) -32.9%
CCOC(=O)c1c(NC(=O)c2ccccc2OCC)sc2c1CCC(CC)C2 (configuration not stated) -11.6%
COc1ccc(N2CCN(C(=O)CCc3c(C)nc4cc(-c5ccc(OC)cc5OC)nn4c3C)CC2)cc1 -9.11%
Cc1cccc(OCC(=O)Nc2cccc3cccnc23)c1C -20.1%
CCCOc1ccc(C2C(=O)N(C3CCCCCC3)CC(=O)N2CCC)cc1OC (configuration not stated) -14.6%
CN(C)S(=O)(=O)c1ccc(C(=O)NCCSc2c(-c3ccc(Cl)cc3)[nH]c3ccccc23)cc1 -15.7%
CC(C)c1ccc(N2C(=O)CSC23C(=O)N(Cc2ccccc2)c2ccccc23)cc1 (configuration not stated) -21.4%
Cc1cc(NS(=O)(=O)c2ccc3oc(=O)c4ncn(C)c4c3c2)ccc1Br -7.61%
Cc1ccc(NC(=O)Cn2c(=O)n(Cc3nc(C)no3)c(=O)c3cc4c(cc32)OCO4)cc1 -5.04%
COc1ccc(NC(=O)N2CCN(S(=O)(=O)c3ccc4c(ccn4C)c3)CC2)c(OC)c1 -0.36%
O=C(/C=C/c1ccccc1Cl)Nc1nc(-c2cccs2)ns1 -5.08%
O=C(Cn1cc(SCc2c(F)cccc2Cl)c2ccccc21)N1CCCC1 10.5%
COc1cccc(CNC(=O)C(C)n2c(=O)cc(-c3ccccc3)c3c(C)nn(C)c32)c1 (configuration not stated) -6.39%
Cc1nc2ccn(Cc3ccco3)c(=O)c2cc1C(=O)N1CCN(c2ccc(F)cc2)CC1 -35.6%
CN(Cc1ccccc1)C(=O)CSc1nc(-c2ccc(F)cc2)cc(C(F)(F)F)n1 -4.81%
Cc1ccc(/C=C(\C#N)c2nc3ccccc3c(=O)[nH]2)cc1 -10.2%
CCCC(CCC)C(=O)NC1CC(=O)N(c2ccc3c(c2)OCCO3)C1 (configuration not stated) -3.69%
O=C(Nc1nnc(S(=O)(=O)N2CCc3ccccc32)s1)c1cccc(Cl)c1 44.1%
CCOc1ccc(CC(=O)Nc2c(C(=O)c3ccccc3)oc3ccc(OC)cc23)cc1OCC -11.6%
CCc1ccccc1NC(=O)Cn1c(=O)n(Cc2ccc(OC)cc2)c(=O)c2oc3ccccc3c21 0.204%
COCCOC(=O)c1c(-c2ccccc2)c(-c2ccccc2)nn(C)c1=O -13%
CCCCOc1ccc(Cn2c(=O)oc3ccc(C)cc32)cc1OC -28%
CCc1nnc(NC(=O)c2nc(SCc3ccccc3F)ncc2Cl)s1 -8.18%
COc1ccc2c(c1)c(=O)c(C(=O)c1ccc(F)cc1)cn2CC(=O)Nc1ccc2c(c1)OCO2 -0.605%
O=S1(=O)c2ccccc2N(Cc2ccc(Cl)cc2)c2ccccc21 -5.1%
CCc1c(C)nc2nncn2c1NCc1ccccc1 -22.2%
COc1ccc(S(=O)(=O)N2CCN(c3cccc(C)c3C)CC2)c2ccccc12 -5.92%
O=C(CCCCCn1c(=O)c2sccc2n(Cc2ccc(Cl)cc2)c1=O)NCc1ccc2c(c1)OCO2 -21.5%
Cc1ccc(S(=O)(=O)N(CC(=O)NCCSc2ccc(Cl)cc2)c2ccccc2C)cc1 21.7%
COc1ccc(Cl)cc1C(=O)Nc1nnc2n1CCS2 17.5%
Cc1ccc(NC(=O)C2CCN(c3nnc(C)c4c(C)n(-c5ccccc5)nc34)CC2)c(Cl)c1 -9.01%
Cc1cc(Br)ccc1NC(=O)c1sc2nc3n(c(=O)c2c1C)CCCC3 0.113%
CC(C)CCNC(=O)Cn1c(-c2cccs2)cc2cc(F)ccc21 33%
O=C(NCCc1ccc(Cl)cc1)c1ccc2c(c1)N(Cc1ccc(Cl)cc1)C(=O)CS2 -1.92%
C=Cc1ccc(Cn2c(=O)n(-c3cccc(Cl)c3)c(=O)c3c4c(sc32)CN(C(C)=O)CC4)cc1 -24.5%
CCN(Cc1ccccc1)Cc1c(O)ccc2oc(C)c(C(=O)Nc3ccc(C)cc3C)c12 -15.5%
COCCCNC(=O)CCn1c(=O)c2ccccc2n(CC(=O)Nc2cc(Cl)ccc2OC)c1=O -2.43%
CCCCN(CC)c1nc(-c2ccccc2F)nc2ccccc12 -4.77%
Cc1cccc(N2CCn3c2nc2c3c(=O)n(C/C=C/c3ccccc3)c(=O)n2C)c1 -1.71%
CN1C(C(=O)Nc2cccc(O)c2)=CC(c2ccco2)=NS1(=O)=O -12.4%
CC(C)c1ccc(NC(=O)N2c3ccccc3Sc3ccccc32)cc1 -9.72%
Cc1cc(C)c(NC(=O)Cn2nnc(S(=O)(=O)c3ccc(C)c(C)c3)c2N)c(C)c1 36.3%
COc1ccc(-c2cc(C(=O)N3CCN(c4ccccc4)CC3)no2)cc1 43.9%
Cc1c(C(=O)OC2CCCCCC2)[nH]c2c1C(=O)CC(c1ccc(Cl)cc1)C2 (configuration not stated) -6.5%
Cc1ccc2c(c1)C(=O)OC(C(=O)Nc1ncc(Cc3ccc(Cl)cc3)s1)C2 (configuration not stated) 13.1%
Cc1nnc(N2C(=O)c3oc4ccccc4c(=O)c3C2c2ccc(Cl)cc2)s1 (configuration not stated) -4.8%
CCOc1ccc(NC(=O)NCc2cccn2Cc2ccccc2)cc1 0.202%
O=C(c1ccc2c(c1)CCN2S(=O)(=O)c1ccc(Cl)cc1)N1CCN(c2ccc(F)cc2)CC1 -5.32%
Cc1cccc(C)c1-n1ncc(C(=O)NC2CCCC2)c1C1CCN(C(=O)OC(C)(C)C)CC1 -6.27%
O=C(COc1ccc(Cl)cc1Cl)Nc1cccc2cccnc12 21.5%
CC(=O)O[C@]1(C(C)=O)CC[C@H]2[C@@H]3C[C@H](C)C4=CC(=O)CC[C@]4(C)[C@H]3CC[C@@]21C -5.12%
O=C(O)c1cc(-c2ccccc2)nc2ccccc12 -23.5% and -25.1%
Cc1ccc2[nH]c3c(=O)n(CC(=O)N(CCN(C)C)Cc4ccccc4)ncc3c2c1 -38.7%
Clc1cccc(C(c2ccc3nc[nH]c3c2)n2ccnc2)c1 (configuration not stated) 28.7%
CC(=O)N1CCC(N(Cc2ccco2)C(=O)Nc2ccc(C)c(Cl)c2)CC1 26.6%
COc1ccc(Nc2c(-c3ccc(C)o3)nc3cc(C)ccn23)cc1 -0.953%
Cc1cc(C)cc(NC(=O)Cn2cc(C(=O)c3cccs3)c3ccccc32)c1 -16.3%
Cc1ccc2oc(-c3ccc(C)c(NC(=O)/C=C/c4ccc(Cl)cc4)c3)nc2c1 -2.31%
CCOC(=O)CNC(=O)N1[C@H](c2cccs2)[C@@H](C)C(=O)[C@@H](C)[C@@H]1c1cccs1 -18.1%
Cc1ccc(CNC(=O)c2ccc(CN3CC(=O)N4CCCCC4C3=O)cc2)cc1 (configuration not stated) -17.1%
COc1cc(NC(=O)c2nc3nc(C)cc(C(F)F)n3n2)c(OC)cc1Cl 4.86%

activation, active:
CC(C)NCC(O)c1ccc2ccccc2c1 (configuration not stated) 68.2%
